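Protocol summary: plate cells (96-well), add compound at 5 concentrations, incubate 48 h, interpolate endpoints linearly. GI50 is the concentration that inhibits growth by half.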 Activity calls are given as the source filed them. Rule as the data show it: active = GI50 up to about 1.1 µM and inactive = higher. Where only a bound is given, the exact number is not on record here.

The values that follow come from ChEMBL document CHEMBL1201862, “PubChem BioAssay data set” (2004).

This experiment relates to NCI-H322M. Nature of the experiment: inhibition of tumour cell growth, NCI panel, 48 h.
Turning to `O=C1c2ccccc2-c2nc3ccc(O)cc3n21`, the GI50 is inactive: > 100 µM. The same measure for `Nc1nc(Cl)cc(NCC2CC(O)(CO)C2)n1` (stereo not drawn): inactive: > 100 µM. With `CC12CC/C(=N/NC(N)=O)C3C1CCCC32`, the GI50 is inactive: > 100 µM.

On to `COC(=O)C(=O)C(C(=O)C(N)=O)c1nc2ccc(C(=O)c3ccccc3)cc2nc1O` (stereo not drawn), for which the GI50 is inactive: > 100 µM. As for `COC(=O)c1c(OC)cccc1C(=O)O`, the GI50 is inactive: > 100 µM. The same measure for `O=c1c(NCc2ccccc2)c(C2(c3ccccc3F)SCCCS2)c1=O`: inactive: > 100 µM; for `COCCOCOC(C)(C)[C@H](CCO)O[Si](c1ccccc1)(c1ccccc1)C(C)(C)C`: inactive: 17.2 µM; for `N[C@@H](Cc1ccccc1)C(=O)N1CCC[C@@H]1P(=O)(Oc1ccccc1)Oc1ccccc1`: inactive: > 100 µM. In the case of `COc1c2c(cc3c1C(O)N1CC[C@]34[C@H]3O[C@H]3[C@H](OC)C[C@@H]14)OCO2` (stereo partly drawn), the GI50 is inactive: 78.2 µM.

For the compound `COc1ccc(CNC(=O)NCn2cc(-c3ccccc3)nn2)cc1`, the GI50 is inactive: > 100 µM. Take `Oc1nc(S)nc2c1CCCN2`: the GI50 is inactive: > 100 µM. The same measure for `CCOC(=O)c1cc(C2CCN(c3ccccc3)C2=O)c(C(=O)/C=C(/C)O)[nH]1` (stereo not drawn): inactive: > 100 µM. To `C=CCOC1=C2CC[C@H](O)[C@@]2(C)CCC1=O` belongs inactive: > 100 µM; to `CC(C)/C=N\n1c(N)c(C#N)c(C#N)c1C(C)C`, inactive: 41.9 µM. The same measure for `CN(C)c1ccc(/C=C2\N=C(NN)NC2=O)cc1`: inactive: 65.5 µM. As for `C#CCN1C(=O)CN2C(Cl)(Cl)C2(c2ccccc2)c2cc(Cl)ccc21` (stereo not drawn), the GI50 is inactive: 93.5 µM. To `Cc1c(Cc2ccccc2)c(Cc2ccccc2)c(C)[s+]1[O-]` belongs inactive: 21.8 µM; to `O=C(O)CCSC(=O)Nc1cccc(F)c1`, inactive: > 100 µM. The same measure for `Nc1c(C(=O)c2ccc(Cl)cc2)[nH]c(NCc2ccccc2)c1C(=S)Nc1ccccc1`: inactive: 2.03 µM; for `O=S(=O)(O)/C(=N\c1cccc(Cc2ccccc2)c1)Nc1cccc(Cc2ccccc2)c1`: inactive: 17.8 µM.

With `c1cc2nnc1SCCSCCSc1ccc(nn1)SCCSCCS2`, the GI50 is inactive: > 100 µM.

Consider `CC(C)NC(=O)O/N=C1\CCC2[C@@H]3CC=C4C[C@@H](OC(=O)NC(C)C)CC[C@]4(C)C3CC[C@]12C` (stereo partly drawn), for which the GI50 was inactive: 1.69 µM. `c1ccc(CN2C3C4N(Cc5ccccc5)C2C2N(Cc5ccccc5)C(C(N2Cc2ccccc2)N4Cc2ccccc2)N3Cc2ccccc2)cc1`: the GI50 is inactive: > 100 µM. As to `COc1ccc2nc(N/N=C/c3sccc3C)cc(C)c2c1`, the GI50 was inactive: 20.6 µM.

For the compound `CCOn1c(C2(CC3CCN(C(=O)c4ccccc4)CC3)OCCO2)cc2ccccc21`, the GI50 is inactive: 19.3 µM. To `C/C=C(\C)C(=O)OC1/C=C(\C)CC/C=C(\C)CC2OC(=O)C(C)(OC(C)=O)C12` (stereo not drawn) belongs inactive: > 100 µM; to `CC(C)(C)C1=CC(=N/N=c2\scc(-c3ccccc3)n2-c2ccccc2)C=C(C(C)(C)C)C1=O`, inactive: > 100 µM; to `Sc1nnc(COc2ccc(Cl)cc2)[nH]1`, inactive: > 100 µM.

In the case of `C[N+](C)([O-])CCCNc1c2ccccc2nc2cccc([N+](=O)[O-])c12`, the GI50 was active: 0.528 µM. With `CCN(CC)C(=O)c1cc([N+](=O)[O-])c(=O)n2c1[nH]c1ccccc12`, the GI50 was inactive: > 100 µM. To `CCOC1c2nc3ccccc3nc2-c2ccccc2N1C(C)=O` (stereo not drawn) belongs inactive: > 100 µM. The same measure for `Cc1ccccc1NC(=O)C(=O)C(C1OC(=O)c2ccccc21)[N+](=O)[O-]` (stereo not drawn): inactive: > 100 µM.

As for `CCCCC(C(=O)CCC(=O)Nc1ccc(Cl)c(Cl)c1)C(=O)C(C)C` (stereo not drawn), the GI50 was inactive: > 100 µM.
